The full ranking holds about 33,000 sequences; the median of “E-score (-0.5 to 0.5)” is about -0.016, and the highest 2% start at about 0.32. Some of the results follow.
The sequences below were run against T1, Stp1 (UniProt B3LFK1) (assay: PBM E-score (8-mer binding enrichment) (E-score (-0.5 to 0.5)); higher = stronger / more preferred TF binding; most listed sequences are background and not binding sites). Settings: protein concentration: 200 nM; construct: GST-full length.
T1 sequence: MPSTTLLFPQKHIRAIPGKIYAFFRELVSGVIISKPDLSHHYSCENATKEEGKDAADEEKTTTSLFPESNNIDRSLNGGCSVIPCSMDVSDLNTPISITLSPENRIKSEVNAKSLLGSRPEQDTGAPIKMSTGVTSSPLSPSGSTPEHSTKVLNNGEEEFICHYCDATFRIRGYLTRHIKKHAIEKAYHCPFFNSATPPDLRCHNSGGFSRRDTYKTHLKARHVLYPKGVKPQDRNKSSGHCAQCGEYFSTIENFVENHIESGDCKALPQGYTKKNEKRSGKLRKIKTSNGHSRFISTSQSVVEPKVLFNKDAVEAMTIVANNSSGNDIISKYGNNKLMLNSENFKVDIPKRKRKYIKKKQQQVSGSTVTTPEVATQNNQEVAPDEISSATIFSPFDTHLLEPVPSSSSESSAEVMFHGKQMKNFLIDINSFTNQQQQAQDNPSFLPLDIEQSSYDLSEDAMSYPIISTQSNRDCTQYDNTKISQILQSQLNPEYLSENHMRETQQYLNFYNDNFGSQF
Method: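 Universal 'all 10-mer' protein binding microarrays (Agilent AMADID 015681) probed with GST-tagged S. cerevisiae TFs (full-length or DBD) made by in vitro transcription/translation (PURExpress), about 100-200 nM. Bound TF was detected with fluorescent anti-GST. Each ungapped 8-mer (which stands for itself and its reverse complement) is scored by the PBM enrichment score (E-score), a modified Wilcoxon-Mann-Whitney statistic from -0.5 to +0.5, computed with the Universal PBM Analysis Suite. Scale: above 0.35 generally sequence-specific binding.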

| Sequence | PBM E-score |
| --- | --- |
| CGAAGGCA | 0.116 |
| AAGTGACC | -0.218 |
| ATGTTGGC | 0.0025 |
| TCAGCCAA | -0.203 |
| ATCTCGCA | 0.117 |
| AGCAGCCG | 0.187 |
| AGAATGCG | 0.0201 |
| TGATGGAA | -0.153 |
| ATGTCACA | 0.0996 |
| GTTTAAAA | 0.277 |
| AATGTGAG | 0.0283 |
| AAGACTAA | 0.0167 |
| ACAGGCGA | -0.0206 |
| CTAGTAAA | 0.145 |
| ACAGCTCG | -0.121 |
| GACCTTCA | -0.201 |
| ATTAAACG | 0.19 |
| CGACTGCC | -0.0225 |
| ATCGGTAC | -0.0209 |
| TAGCGCTA | -0.0704 |
| ATCATAGA | 0.18 |
| ACATGCCG | 0.369 |
| AAGGACGT | -0.0457 |
| TATGGGGA | 0.0926 |

| Sequence | PBM E-score |
| --- | --- |
| AAAGTCGT | -0.153 |
| AAGCGGCT | 0.354 |
| CAAAACTG | -0.0236 |
| ATCCCAAC | -0.118 |
| CTATCGTC | -0.184 |
| CTGGCTTC | -0.108 |
| ACGAAAAC | 0.226 |
| CTTCCTGA | 0.0538 |
| AGCGTCCA | -0.197 |
| AATATTTG | 0.181 |
| CAACTTCG | 0.114 |
| AAACAGTG | -0.0405 |
| AGGGGAGG | -0.213 |
| ATCCACAT | 0.0725 |
| CGCGGTGC | 0.135 |
| AGACTCCG | -0.0821 |
| CAAGCTAA | -0.267 |
| ACGCCAGA | -0.159 |
| CCTATATA | 0.0736 |
| ACCCGACA | -0.0605 |
| ATACGGGA | 0.125 |
| CGATTGAC | 0.0667 |
| CAGACCCA | -0.255 |
| CTGCTAGA | 0.0114 |

| Sequence | PBM E-score |
| --- | --- |
| CGTAAAGA | 0.228 |
| AGATTCTG | -0.029 |
| CGGTTGAC | -0.0333 |
| GATTGCGA | 0.0729 |
| CATATCAG | 0.0919 |
| CCCAGCAC | -0.28 |
| AATACTGG | -0.155 |
| CATACATC | -0.155 |
| CAAAGCCA | 0.0366 |
| GGGTACCC | -0.326 |
| CCCGGCCG | -0.152 |
| GCGTCCTA | -0.157 |
| CTGCTGTC | -0.116 |
| ATCGAGTC | -0.0633 |
| ACCTATAA | -0.041 |
| AACAGATA | 0.0536 |
| CCCGCTAA | -0.216 |
| TAAATCGA | 0.201 |
| ACCAGGCC | -0.0465 |
| CAGTGGGG | -0.239 |
| GAGGAAAC | -0.155 |
| GATGCCTA | 0.149 |
| GCGGTGCC | 0.29 |
| GACTTACA | -0.162 |

| Sequence | PBM E-score |
| --- | --- |
| CACTAGTA | 0.00039 |
| ATTAAGAG | 0.0434 |
| ACCAGCCC | -0.233 |
| AACCGTCC | -0.24 |
| GGTGTATA | -0.171 |
| AGTTTCGC | 0.0498 |
| ACCTTAAC | 0.0546 |
| GATGCCAC | 0.245 |
| GACTTTCC | -0.198 |
| AGACGATG | 0.101 |
| GCTGGATA | -0.0328 |
| ATCTGCAC | -0.214 |
| CATGTAGA | -0.0229 |
| AGCGCGGG | 0.098 |
| CAACATTG | 0.0989 |
| CCGAAGCA | -0.12 |
| CGTGACAG | -0.00558 |
| CACCACAC | 0.104 |
| ATCCGACA | -0.145 |
| CTGCCGCA | 0.347 |
| CTATAATC | -0.0205 |
| ACGCTGTA | 0.0495 |

— the supplement of paper PMC3334620
